Laboratory results from the antibiotic and cytotoxicity screens of Wong et al. (2023).
Some of the results follow.

system: HSkMC (human skeletal muscle cells); assay: cytotoxicity call (relative viability < 0.9); conditions: 10 µM

Question: With `COc1ccc(CN(C)C[C@@H]2OCCCC[C@@H](C)Oc3ccc(NC(=O)c4ccccc4)cc3C(=O)N([C@H](C)CO)C[C@@H]2C)cc1` as the molecule, how does the cytotoxicity call read?
Answer: inactive

Question: `C[C@@H]1CN([C@@H](C)CO)C(=O)c2cccc(NC(=O)NC3CCCCC3)c2O[C@@H]1CN(C)C(=O)Nc1cccc2ccccc12` was tested. Which cytotoxicity call did it give?
Answer: inactive

Question: Which cytotoxicity call does the source give for `COc1ccc(NC(=O)Nc2ccc3c(c2)C(=O)N([C@H](C)CO)C[C@@H](C)[C@@H](CN(C)C(=O)Nc2ccc(OC)cc2)OCCCC[C@@H](C)O3)cc1` here?
Answer: inactive

Question: `COc1ccc(NC(=O)N(C)C[C@@H]2OCCCC[C@H](C)Oc3ccc(NC(=O)Cc4ccccc4)cc3C(=O)N([C@@H](C)CO)C[C@@H]2C)cc1` was tested. Which cytotoxicity call did it give?
Answer: inactive

Question: Which cytotoxicity call does the source give for `CC=Cc1ccc2n(c1=O)C[C@@H]1[C@@H](CO)[C@H](C(=O)NC3CCC3)N(S(C)(=O)=O)[C@H]21` here?
Answer: inactive

Question: For `Cc1ccc(OC(=O)n2c3ccccc3c3ccccc32)cc1`, which cytotoxicity call is on record?
Answer: inactive

Question: Which cytotoxicity call does the source give for `C[C@@H]1CN([C@@H](C)CO)S(=O)(=O)c2ccc(C#CC(C)(C)O)cc2O[C@H]1CN(C)Cc1ccncc1` here?
Answer: inactive

Question: With `C[C@@H]1CN([C@H](C)CO)C(=O)Cc2cc(NC(=O)CCN3CCOCC3)ccc2O[C@H]1CN(C)C(=O)Nc1ccc(F)cc1` as the molecule, how does the cytotoxicity call read?
Answer: inactive

Question: Which cytotoxicity call does the source give for `Cc1noc(C)c1S(=O)(=O)Nc1ccc2c(c1)C(=O)N([C@H](C)CO)C[C@@H](C)[C@@H](CN(C)CC1CCCCC1)OCCCC[C@H](C)O2` here?
Answer: inactive

Question: Which cytotoxicity call does the source give for `CCS(=O)(=O)Nc1ccc2c(c1)C(=O)N(C)[C@H]1CC[C@H](CC(=O)Nc3ccccc3C)O[C@@H]1CO2` here?
Answer: inactive

Question: `C[C@H](CO)N1C[C@H](C)[C@@H](CN(C)Cc2ccc(Cl)c(Cl)c2)OCCCC[C@H](C)Oc2ccc(NC(=O)Nc3ccc4c(c3)OCO4)cc2C1=O` was tested. Which cytotoxicity call did it give?
Answer: active

Question: How did the cytotoxicity call turn out when `COCC(=O)Nc1ccc2c(c1)OC[C@H](C)N(C(=O)Cc1cccnc1)C[C@@H](C)[C@@H](OC)CN(C)C2=O` was run?
Answer: inactive

Question: For `C[C@H]1CN([C@@H](C)CO)C(=O)c2cccc(NC(=O)CCCCCC(=O)Nc3ccccc3N)c2O[C@@H]1CN(C)CC1CCCCC1`, which cytotoxicity call is on record?
Answer: inactive

Question: For `CO[C@@H]1CN(C)C(=O)c2ccc(NC(=O)c3ccccc3)cc2OC[C@@H](C)N(C(=O)CN(C)C)C[C@@H]1C`, which cytotoxicity call is on record?
Answer: inactive

Question: Which cytotoxicity call does the source give for `Cc1noc(C)c1NC(=O)N(C)C[C@H]1OCCCC[C@H](C)Oc2ccc(NC(=O)C3CCCCC3)cc2C(=O)N([C@@H](C)CO)C[C@@H]1C` here?
Answer: inactive

Question: For `C[C@@H]1CN([C@@H](C)CO)C(=O)Cc2cc(NC(=O)Nc3ccc(C(F)(F)F)cc3)ccc2O[C@@H]1CN(C)CC1CCCCC1`, which cytotoxicity call is on record?
Answer: inactive

Question: `NCC[C@H]1CC[C@@H](NC(=O)C2CCC2)[C@@H](CO)O1` was tested. Which cytotoxicity call did it give?
Answer: inactive

Question: How did the cytotoxicity call turn out when `COc1ccc(NC(=O)Nc2ccc3c(c2)C(=O)N([C@@H](C)CO)C[C@@H](C)[C@H](CN(C)Cc2ccc(C(=O)O)cc2)OCCCC[C@H](C)O3)cc1` was run?
Answer: inactive

Question: Which cytotoxicity call does the source give for `C=CCC[C@@H](Cc1ccc(F)cc1)C(=O)OC[C@H]1CCCN1C(=O)[C@@H](CC=C)CC(=O)N(CCO)Cc1ccccc1` here?
Answer: inactive

Question: With `C[C@@H]1CN([C@@H](C)CO)C(=O)c2cc(NC(=O)C3CCCCC3)ccc2O[C@@H](C)CCCCO[C@H]1CN(C)Cc1ccccc1` as the molecule, how does the cytotoxicity call read?
Answer: inactive

Question: With `C[C@@H]1CCCCO[C@@H](CN(C)Cc2ccc(C(F)(F)F)cc2)[C@H](C)CN([C@H](C)CO)C(=O)c2cc(NC(=O)Nc3ccc(F)cc3)ccc2O1` as the molecule, how does the cytotoxicity call read?
Answer: inactive

Question: With `O=C(C[C@H]1CC[C@@H]2[C@H](COC[C@H](O)CN2C(=O)Nc2ccc(Cl)cc2)O1)NCCc1ccncc1` as the molecule, how does the cytotoxicity call read?
Answer: inactive

Question: `C[C@@H]1CN([C@@H](C)CO)C(=O)c2cc(/C=C/c3ccccc3)cnc2O[C@@H]1CN(C)C(=O)Nc1ccc(C(F)(F)F)cc1` was tested. Which cytotoxicity call did it give?
Answer: inactive

Question: Which cytotoxicity call does the source give for `C[C@H]1CN([C@@H](C)CO)S(=O)(=O)c2ccc(-c3cncnc3)cc2O[C@@H]1CN(C)C(=O)c1cccc(F)c1` here?
Answer: inactive

Question: With `C[C@H]1CN([C@@H](C)CO)C(=O)c2cccc(NS(C)(=O)=O)c2O[C@H]1CN(C)Cc1ccc(C(=O)O)cc1` as the molecule, how does the cytotoxicity call read?
Answer: inactive

Question: Which cytotoxicity call does the source give for `COc1cc(OC)c2c(OC)c(-c3ccc4c(c3)OCO4)c(=O)oc2c1` here?
Answer: inactive

Question: Which cytotoxicity call does the source give for `O=S(=O)(Cc1ccccc1)Nn1cnnc1` here?
Answer: inactive

Question: `COCC(=O)N1C[C@@H](C)[C@H](OC)CN(C)C(=O)c2cc(NC(=O)c3ccc(F)cc3)ccc2OC[C@H]1C` was tested. Which cytotoxicity call did it give?
Answer: inactive

Question: Which cytotoxicity call does the source give for `CN[C@@H]1[C@H](O[C@H]2[C@H](O[C@H]3[C@H](O)[C@@H](O)[C@H](NC(=N)N)[C@@H](O)[C@@H]3NC(=N)N)O[C@@H](C)[C@]2(O)C=O)O[C@@H](CO)[C@H](O)[C@H]1O` here?
Answer: inactive

Question: How did the cytotoxicity call turn out when `N[C@@H](Cc1ccc(O)c(O)c1)C(=O)O` was run?
Answer: inactive

Question: `Oc1ccc(Cl)c2c1CCC2` was tested. Which cytotoxicity call did it give?
Answer: inactive

Question: For `CN(C)C(=O)CN1CCCN(CCn2nc3ccccn3c2=O)CC1`, which cytotoxicity call is on record?
Answer: inactive

Question: How did the cytotoxicity call turn out when `Cc1ccc(S(=O)(=O)Nc2ccc3c(c2)CC(=O)N([C@@H](C)CO)C[C@H](C)[C@@H](CN(C)Cc2ccc(C(F)(F)F)cc2)O3)cc1` was run?
Answer: active

Question: How did the cytotoxicity call turn out when `COc1cccc(S(=O)(=O)N(C)C[C@@H]2OCc3cn(nn3)CCCC(=O)N([C@@H](C)CO)C[C@H]2C)c1` was run?
Answer: inactive

Question: `C[C@H](CO)N1C[C@H](C)[C@H](CN(C)C(=O)Nc2cccc(C(F)(F)F)c2)OCc2ccccc2-c2c(n(C)c3ccccc23)C1=O` was tested. Which cytotoxicity call did it give?
Answer: active

Question: `Cc1ccc(S(=O)(=O)Nc2cccc3c2O[C@@H](CN(C)S(=O)(=O)c2cn(C)cn2)[C@H](C)CN([C@H](C)CO)C3=O)cc1` was tested. Which cytotoxicity call did it give?
Answer: inactive

Question: How did the cytotoxicity call turn out when `O=C(C[C@H]1C=C[C@@H](NS(=O)(=O)c2ccccc2)[C@@H](CO)O1)NCc1ccncn1` was run?
Answer: inactive

Question: With `C[C@H](CO)N1C[C@H](C)[C@H](CN(C)S(C)(=O)=O)Oc2ccc(NC(=O)C3CCCCC3)cc2CC1=O` as the molecule, how does the cytotoxicity call read?
Answer: inactive

Question: Which cytotoxicity call does the source give for `CCCNC(=O)N(C)C[C@H]1Oc2cc(-c3ccccc3F)ccc2S(=O)(=O)N([C@H](C)CO)C[C@@H]1C` here?
Answer: inactive
